Source: PubChem BioAssay AID1347417 (National Center for Advancing Translational Sciences (NCATS), 2020)
Among all 120,000 compounds or so, about 5,300 (4.4%) were called active. The shares of active, inactive and inconclusive entries below differ from those in the screen. Calls follow the shape of the dose curve; as a rule, active = well fitted inhibition curve with a large enough effect; inconclusive = small, poorly fitted or top-dose-only effect; inactive = no such curve, though single readings can be large or run the other way. Potencies beside an inconclusive call are fits to weak or partial responses and may not hold up.
Potency is read from the fitted curve at half-maximal effect; tags tell the direction and shape of the fitted curve.

Assay: qHTS Primary assay for Inhibitors of Plasmodium falciparum Dd2 growth in vitro; also: nearly all actives have a fitted effect of over 65% in size;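 as to activity, negative = inhibition: plate controls were DMSO vehicle for no effect and reference drug for full effect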
Conditions: P. falciparum Dd2 growth, SYBR Green, 72 h; activity, negative = inhibition: at 28.9 µM (top of the series) unless noted; series mostly up to 28.9 µM
In short: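 Infected erythrocytes (Dd2, 0.3% parasitemia, 2.5% hematocrit final) are added to compound in RPMI-1640/Albumax II medium, grown 72 h at 37C in low oxygen, then lysed with saponin/Triton-X containing SYBR Green and read by fluorescence.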
With `CC(C)c1ccc(N2C(=O)CSC23C(=O)N(C)c2ccccc23)cc1` (stereo not drawn) the Potency was inconclusive: 10 µM [inhibitor, single point]. In the case of `Cc1nc(-c2ccccc2)n(CC(=O)Nc2ccc(F)c(Cl)c2)c(=O)c1CCO`, the Potency is reported as active: 8.91 µM. For `CCC(C(=O)NC1CCN(c2cc(-c3ccc(OC)cc3)[nH]n2)CC1)c1ccccc1` (stereo not drawn), the Potency was inconclusive: 1.12 µM [inhibitor, partial curve, poor fit]. In the case of `Cn1cnc(S(=O)(=O)N2CCCC(C(=O)NC3CCCC3)CCNC(=O)CC2)c1` (stereo not drawn), the “activity, negative = inhibition” value is reported as inactive: -13.7%. With `COc1cccc(C(=O)N2CCC(c3nc(C4CCOC4)no3)CC2)c1` (stereo not drawn) the “activity, negative = inhibition” value was inactive: -1.98%. With `O=C(c1ccc2ncccc2c1)N1CCCCCC1c1nnc(-c2ccccc2)o1` (stereo not drawn) the Potency was inconclusive: 5.01 µM [inhibitor, partial curve, poor fit]. With `CCNC(=O)N[C@H]1[C@H](O)[C@H](O)C[C@@H]1c1ccc(C)cc1` the “activity, negative = inhibition” value was inactive: -10.6% [at 44.1 µM]. In the case of `CC1(C)NC(=O)N(CC(=O)N2CCc3nc(-c4cccnc4)[nH]c3C2)C1=O`, the “activity, negative = inhibition” value is reported as inactive: 1.92%. With `Cc1ccc(-c2ncc(NC(=O)Cc3ccccc3C)cn2)cc1` the Potency was inconclusive: 10 µM [inhibitor, single point]. With `CN(c1ncccc1CNC(=O)c1ccc2c(c1)OCO2)C1CCCCC1` the “outcome” value was “inactive”. With `COCC(=O)Nc1ccc(-c2c(CC(C)C)nn(-c3ccccc3)c2OC(C)=O)cc1` the Potency was inconclusive: 10 µM [inhibitor, partial curve, poor fit]. For `CCn1cc(CN2CCC3(CCC3OC)CC2)cn1` (stereo not drawn), the “activity, negative = inhibition” value was inactive: -24.4%. With `O=S1(=O)NCC2(CCCN(CCc3ccccc3)C2)Oc2ncccc21` (stereo not drawn) the activity, negative = inhibition was inconclusive: -148% [inhibitor]. For `Cc1cccc(N2CCN(CCNC(=O)Nc3ccc(Cl)cc3)CC2)c1C`, the Potency was inconclusive: 10 µM [inhibitor, single point]. With `CCOc1ccccc1-n1nnc(-c2nsc(NC(=O)c3ccc(C)cc3)n2)c1C` the Potency was inconclusive: 0.0251 µM [inhibitor, partial curve, poor fit]. With `Cc1ccccc1C(=O)N1CCC(c2nn(-c3ccc(Cl)cc3)c(=O)[nH]2)CC1` the Potency was inconclusive: 0.141 µM [inhibitor, full curve, poor fit]. With `CCc1nncn1C1CCN(S(=O)(=O)c2ccc(Cl)c(C)c2)CC1` the Potency was inconclusive: 2.82 µM [inhibitor, full curve, poor fit]. For `CCc1cccc(-n2c(=O)c3cccnc3n2CC(=O)Nc2ccc(F)c(C)c2)c1`, the Potency was active: 1.26 µM. With `O=C1NCc2ccccc2CC12CCCN(Cc1ccccc1OC(F)(F)F)C2` (stereo not drawn) the activity, negative = inhibition was inconclusive: -75.9% [inhibitor]. For `O=S(=O)(Cc1ccccc1)N1CCC(OC2CCN(Cc3ccccc3)CC2)CC1`, the Potency was inconclusive: 3.55 µM [inhibitor, single point]. With `COc1cccc(C(=O)Nc2c(C(=O)N3CCN(c4ccc(F)cc4)CC3)oc3ccccc23)c1` the Potency was inconclusive: 10 µM [inhibitor, single point]. In the case of `Cc1noc(C)c1-c1cc2cc(CO)oc2c(NCc2ccc3c(c2)OCO3)n1`, the Potency is reported as inconclusive: 3.55 µM [inhibitor, single point]. In the case of `CNC(=O)N1CCC(C2CCN(Cc3ccncc3)C2)CC1` (stereo not drawn), the “activity, negative = inhibition” value is reported as inactive: 5.34%. In the case of `Cc1ccc(NC(=O)c2nnn3c2COC(c2ccc(F)cc2)C3)c(Br)c1` (stereo not drawn), the Potency is reported as inconclusive: 11.2 µM [inhibitor, single point]. For `Cn1cc(CNc2ccc(-c3nc(CCCc4ccccc4)no3)cn2)cn1`, the “activity, negative = inhibition” value was inactive: -19.9%. With `CCCc1ncncc1C(=O)N1CCCC(CCc2ccc(F)cc2)C1` (stereo not drawn) the Potency was inconclusive: 17.8 µM [inhibitor, single point]. For `O=C1NCCCCCCN(C(=O)CC2CCCCC2)[C@H]2CCCC[C@@H]12`, the Potency was inconclusive: 17.8 µM [inhibitor, single point]. For `CCC1(C(=O)NC2CCCCCC2)CCCCC(=O)N1` (stereo not drawn), the “activity, negative = inhibition” value was inactive: 5.63%. For `Cc1cc(S(=O)(=O)N2CCCC(Cn3cnc4cccnc43)C2)ccc1F` (stereo not drawn), the “outcome” value was “inactive”. With `O=C1Nc2ccccc2CN(CC2CCCCC2)C12CCNC2` (stereo not drawn) the Potency was inconclusive: 8.91 µM [inhibitor, partial curve, poor fit]. With `Cc1noc([C@@H]2CN(C3CCCCC3)C[C@H]2CO)n1` the “activity, negative = inhibition” value was inactive: 3.31%. In the case of `c1ccc(-c2nc(C3CCOCC3)no2)c(OC2CCN(C3CCCC3)C2)c1` (stereo not drawn), the Potency is reported as inconclusive: 1 µM [inhibitor, full curve, poor fit]. For `COc1ccc(NC(=O)Cn2c(=O)n(Cc3nc(-c4ccccc4)no3)c(=O)c3ccccc32)cc1Cl`, the Potency was inconclusive: 12.6 µM [inhibitor, partial curve, poor fit]. In the case of `COc1ccc(/C=C/C(=O)Nc2nc3n(n2)C(c2ccc(F)cc2)C=C(c2ccccc2)N3)cc1` (stereo not drawn), the Potency is reported as active: 8.91 µM. For `COc1ccc(OC2CN(CCC(C)C)C2)cc1`, the “activity, negative = inhibition” value was inactive: -19.9% [at 44.1 µM]. For `COc1ccc(OC)c(S(=O)(=O)N2CCCCCCN(C)C(=O)[C@@H]3CCC[C@@H]32)c1`, the Potency was inconclusive: 12.6 µM [inhibitor, single point]. For `COc1cc(NC(=O)c2cccc3c2C(=O)N(C2CCCCC2)C3)cc(OC)c1OC`, the Potency was inconclusive: 6.31 µM [inhibitor, partial curve, poor fit]. In the case of `O=C1c2c(nc(CNCc3ccc4c(c3)OCO4)n2Cc2ccccc2)NCCN1CCOc1ccccc1`, the Potency is reported as inconclusive: 3.98 µM [inhibitor, full curve]. In the case of `O=C(c1ccc(C(F)(F)F)cc1)N1CCn2c(nnc2C2CCCNC2)C1` (stereo not drawn), the Potency is reported as “inactive”. In the case of `Oc1ccccc1-c1nc(/C=C/c2ccccc2Cl)nn1-c1ccccc1`, the Potency is reported as inconclusive: 5.62 µM [inhibitor, partial curve, poor fit]. For `O=C1NCCOCCCN(Cc2cccc(F)c2)[C@H]2CCCC[C@@H]12`, the Potency was inconclusive: 4.47 µM [inhibitor, partial curve, poor fit]. With `O=C(NC1CCCC1)[C@H]1C[C@@H](O)[C@H](O)[C@@H]2N=C(Nc3ccc4c(c3)OCO4)S[C@@H]21` the Potency was inconclusive: 14.1 µM [inhibitor, single point]. With `COc1ccc(CCNC(=O)C[C@@H]2c3nc(NC(=O)CC(C)(C)C)sc3C[C@@H]3[C@](C)(CO)[C@H](O)CC[C@]32C)cc1OC` the Potency was inconclusive: 20 µM [inhibitor, single point].
